Measurements taken from PubChem BioAssay AID1865 (National Center for Advancing Translational Sciences (NCATS), 2009).
Screen size: about 280,000 compounds; about 540 (0.19%) were called active. Inconclusive results, whose numbers are uncertain, are shown with a selection of clear calls. Calls come from the whole dose curve; as a rule, active = well fitted activation curve with a large enough effect; inconclusive = small, poorly fitted or top-dose-only effect; inactive = flat fitted curve, though single readings scatter. Potencies beside an inconclusive call are fits to weak or partial responses and may not hold up.

Assay: Quantitative High-Throughput Screen for Regulators of Epigenetic Control; note: nearly all actives have a fitted effect of over 60% in size
Details: murine LDR cells, GFP reporter derepression, 30 h; series mostly up to 53.9 µM
Procedure, shortened: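 In this reporter-derepression format, murine cells bearing a silenced integrated CMV-GFP locus incubate with test compound (30 h, 37 C), then are washed and imaged; fluorescent objects of 20–120 um count as induced cells.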
Potency is the fitted concentration of half-maximal effect; tags give direction and shape of the fitted curve.

SMILES | Potency
CCOC(=O)N1CCC(NC(=O)C2CCN(C(=O)c3cc4oc(C)cc4n3Cc3c(F)cccc3Cl)CC2)CC1 | inactive
O=C(N/N=C1\CCc2ccccc21)c1ccccc1O | inactive
CCc1ccc(CNCc2c(C(=O)O)n(Cc3ccc(C)cc3)c3cc(C)ccc23)cc1 | inconclusive: 17.8 µM [activator, single point]
Cc1ccccc1Cn1c2ccccc2c2cnn(CC(=O)NC3CCC(C)CC3)c(=O)c21 (stereo not given) | inconclusive: 25.1 µM [activator, single point]
Cc1nc(SCC(=O)c2cccc([N+](=O)[O-])c2)n[nH]1 | inconclusive: 35.5 µM [activator, single point]
O=C(CSC(=S)N1CCCC1)c1cc(Br)cc(Br)c1O | inconclusive: 28.2 µM [activator, single point]
Cc1cc2c(=O)n(Cc3ccco3)c(SCC(=O)c3ccc(Cl)s3)nc2s1 | inactive
CCc1ccc(C2=NN(C(C)=O)C(c3ccco3)C2)cc1 (stereo not given) | inactive
CCN=c1sc(C(=O)NCCc2ccccc2)cc(=O)n1CC | inconclusive: 35.5 µM [activator, single point]
Cc1nc(C)c(/C(O)=C/c2nc3ccccc3oc2=O)s1 | inconclusive: 31.6 µM [activator, single point]
CCc1ccc(C(=O)c2cn(CC(=O)Nc3ccc(OC)cc3)c3cc4c(cc3c2=O)OCO4)cc1 | inconclusive: 31.6 µM [activator, single point]
COc1cc(C(=O)OCC(=O)c2c(N)n(C)c(=O)n(C)c2=O)ccc1OCCC(C)C | inconclusive: 35.5 µM [activator, single point]
O=C(CSc1ncn[nH]1)c1cccc([N+](=O)[O-])c1 | inconclusive: 31.6 µM [activator, single point]
Cc1ccc2nc(-c3ccc(NS(=O)(=O)c4ccc(F)c(F)c4)cc3)sc2c1 | inconclusive: 35.5 µM [activator, single point]
Cc1cc(C)cc(-n2c(N)c(C(=O)Nc3c(C)n(C)n(-c4ccccc4)c3=O)c3nc4ccccc4nc32)c1 | inconclusive: 5.62 µM [activator, single point]
O=C(NCCC1=CCCCC1)c1ccc2c(=O)n3nc(Nc4ccccc4)sc3nc2c1 | inactive
CN(C)c1nc(=Nc2cccc(Cl)c2)ss1 | active: 1.12 µM
Cc1c(C(=O)Nc2ccc3c4c(cccc24)CC3)cccc1[N+](=O)[O-] | inactive
CCOC(=O)/C(=C\C=C1/Sc2cc(OCC)c(OCC)cc2N1CC)C(C)=O | active: 5.62 µM
Cc1ccccc1NC(=O)CSc1cn(CC(=O)N(C(C)C)C(C)C)c2ccccc12 | inactive
CC(C)(C)c1cc(C(=O)/C=C/c2ccc(C(=O)O)cc2)cc(C(C)(C)C)c1 | inconclusive: 35.5 µM [activator, single point]
CCN(CC)c1ccc(/C=C2\C(=O)c3ccc(C(=O)O)cc3C2=O)cc1 | inactive
Cc1ccc(-c2nn(-c3ccccc3)cc2/C=C(\C#N)c2cccc(C#N)c2)o1 | inconclusive: 7.08 µM [activator, partial curve]
COc1ccc(-c2[nH]n(-c3ccc([N+](=O)[O-])cc3)c(=O)c2C=NCc2ccccc2)cc1 | active: 12.6 µM

SMILES | Potency
CC(=O)Nc1ccc2nc(NC(=O)c3cccs3)sc2c1 | inactive
O=C(N/N=C\c1ccc([N+](=O)[O-])s1)c1cncc(Br)c1 | inconclusive: 25.1 µM [activator, single point]
Oc1c(CN2CCc3ccccc3C2)cc(Cl)c2cccnc12 | active: 3.98 µM
Cc1ccc(P(=O)(CSC(=N)N)c2ccc(C)cc2)cc1 | inconclusive: 25.1 µM [activator, single point]
CCC1(C)CC2(CCCN(CCC(O)(c3ccccc3)c3ccccc3)C2)CCO1 (stereo not given) | inconclusive: 5.62 µM [activator, single point]
CCCn1nc(NC(=O)c2ccccn2)c2cc3cc(C)ccc3nc21 | inconclusive: 22.4 µM [activator, single point]
CCc1c(C)sc(NC(=O)c2cc(-c3ccc(OC)cc3)on2)c1C#N | inactive
NC1=NC(=O)/C(=C/c2ccccc2OS(=O)(=O)c2ccccc2)S1 | inactive
CCc1ccc(CNc2ccc(O)cc2)cc1 | inactive
Cc1ccc(NC(=O)CCCn2c3ccccc3c(=O)c3cc(C)ccc32)c(Br)c1 | inconclusive: 35.5 µM [activator, single point]
CCOCCCNc1nc2c(C)cccn2c(=O)c1/C=C1\SC(=S)N(C(C)CC)C1=O (stereo not given) | active: 3.16 µM
COc1cccc(-c2ccc3c(N)c(C(=O)c4ccc(Br)cc4)sc3n2)c1 | inconclusive: 31.6 µM [activator, single point]
CCOC(=O)C1=C(C)N=c2s/c(=C\c3ccc(OC(C)=O)cc3)c(=O)n2C1/C=C/c1ccccc1 (stereo not given) | inconclusive: 6.31 µM [activator, single point]
N#CC(C#N)=C1CCc2ccccc2N1 | inconclusive: 1.26 µM [activator, partial curve, poor fit]
CCN(CC)CCCN(Cc1cc2cc3c(cc2[nH]c1=O)OCCO3)C(=O)Nc1ccc(F)cc1 | inactive
O=C1C=C(O)c2cccc(O)c2C1=O | inactive
CN(C)S(=O)(=O)c1ccc(C(=O)NC2CCCc3ccccc32)cc1 (stereo not given) | inconclusive: 35.5 µM [activator, single point]
COc1ccc(-n2c(C)cc(/C=C3\SC(=S)N(Cc4ccco4)C3=O)c2C)cc1 | inconclusive: 31.6 µM [activator, single point]
Cc1ccc2nc(N3C(=O)CNC3=S)sc2c1 | inconclusive: 35.5 µM [activator, single point]
COCCCn1c(Cc2ccccc2)nnc1SCC(=O)N1CCCCC1 | inconclusive: 0.562 µM [activator, partial curve]
CCCOc1ccc(CNC(=O)c2ccc(-n3c(C)cc4c3CCC(C)C4)cc2)cc1 (stereo not given) | inconclusive: 35.5 µM [activator, single point]
CCOC(=O)CCCCC(=O)c1[nH]c(=O)[nH]c1CSc1nc2ccccc2[nH]1 | inactive
CCOC(=O)c1cccc(NC(=O)CC2C(=O)N(c3ccc(OC)cc3)C(=O)N2C2CCCC2)c1 (stereo not given) | inactive
CC(C)n1cc(/C=C2\NC(=O)N(c3cccc(Cl)c3)C2=O)c2ccccc21 | inconclusive: 31.6 µM [activator, single point]

SMILES | Potency
O=C(c1cc(-c2ccco2)on1)N1CCN(C(c2ccccc2)c2ccccc2)CC1 | inconclusive: 7.08 µM [activator, partial curve]
Oc1ccc(NCc2ccccc2OCc2ccccc2F)cc1 | inconclusive: 31.6 µM [activator, single point]
O=C(NCCc1ccncc1)Nc1ccc(Cl)cc1 | inactive
COc1ccc(O)c(C(=O)c2cnc3onc(C)c3c2)c1 | inactive
Cc1cc(C)cc(N2C(=O)CSC23C(=O)N(CC(=O)Nc2ccc(F)cc2F)c2ccccc23)c1 (stereo not given) | inactive
CCN(CC)S(=O)(=O)c1ccc2c(c1)N(CC(=O)NCc1ccccn1)C(=O)CO2 | inconclusive: 2.82 µM [activator, partial curve]
CCC(CC)C(=O)NCCc1ccc(S(N)(=O)=O)cc1 | inactive
CCOCCCNC(=S)NCCNc1nc2ccc(C)cc2cc1C#N | inactive
CC(CCc1ccccc1)NC(=O)COC(=O)c1ccc(S(C)(=O)=O)c([N+](=O)[O-])c1 (stereo not given) | inconclusive: 3.55 µM [activator, partial curve]
CCCSC(=S)NC1CCS(=O)(=O)C1 (stereo not given) | inconclusive: 31.6 µM [activator, single point]
O=c1cc(O)nc(-c2ccc(Cl)cc2)s1 | inactive
O=C(CC(SCCO)c1ccc(F)cc1)c1ccco1 (stereo not given) | inconclusive: 22.4 µM [activator, single point]
CCOc1ccccc1Nc1nnc(-c2cc3cc(OC)ccc3oc2=O)s1 | active: 17.8 µM
Fc1cccc(Cc2noc(CN3CCCN(C4Cc5ccccc5C4)CC3)n2)c1 | inconclusive: 25.1 µM [activator, single point]
O=C(NCc1ccc(F)cc1)c1ccc(Nc2nc3ccccc3n3nnnc23)cc1 | inconclusive: 35.5 µM [activator, single point]
Oc1ccc(N=Cc2sc3ccccc3c2Cl)cc1 | inconclusive: 35.5 µM [activator, single point]
CN1CCN(S(=O)(=O)c2ccc(NC(=O)c3ccc(Br)s3)cc2)CC1 | inactive
Cc1cc(NC(=O)CSc2nc3ccccc3n2CCC#N)no1 | inconclusive: 35.5 µM [activator, single point]
CC(CNC(=O)c1ccc(CSc2nc3ccncc3n2Cc2ccccc2)cc1)c1ccccc1 (stereo not given) | inconclusive: 17.8 µM [activator, single point]
C=C1Cc2c(Cl)cc3[nH]c4c5c3c2[C@@]2(O)[C@@H]1C[C@@H]2C(C)(C)O[C@H]5[C@@H]1CC[C@@]2(O)[C@@]35O[C@@H]3[C@@H](O)[C@@H](C(=O)O)O[C@H]5CC[C@]2(C)[C@@]41C | inconclusive: 28.2 µM [activator, single point]
CCSc1nnc(-c2sc3nnc(-c4ccccc4)c(-c4ccccc4)c3c2N)o1 | inconclusive: 31.6 µM [activator, single point]
Cc1cc(N/N=C/c2ccc(Cl)cc2Cl)nc(NCc2ccccc2)n1 | inconclusive: 22.4 µM [activator, single point]
